Assay results as given in ChEMBL document CHEMBL4888484, “Replenishing the malaria drug discovery pipeline: Screening and hit evaluation of the MMV Hit Generation Library 1 (HGL1) against asexual blood stage Plasmodium falciparum ,using a nano luciferase reporter read-out” (2022).
The whole screen tested about 150,000 compounds, of which about 540 (0.36%) showed an effect of 50% or more. This is one part of the list.

What follows are molecules tested on Plasmodium falciparum (assay: Primary screen in NF54 nanoGlo assay, in single point, at 2uM, 72h; a lower Z score goes with more inhibition). Settings: timepoint 72 hour.
Assay type: functional, Erythrocyte

SMILES	% Inhibition [%]	Z score
Cc1ccc(NC(=O)Cn2c(=O)ncc3cc(S(=O)(=O)N4CCCC[C@@H]4C)ccc32)cc1Cl	31	-3.55
O=C1C[C@H](c2nc(-c3ccccc3)c(CCc3ccccc3)[nH]2)CN1	2	-0.2
CCN(C)CCN(CC)C(=O)CCc1cc2c(n1-c1ccc(OC)cc1)-c1ccccc1CC2	23	-4.02
CCOc1ccc(-c2nn(-c3ccccc3)cc2/C=C(\C(=O)c2ccccc2)c2nc3ccccc3o2)cc1	22	-2.51
CCC(=O)N(CCN1CCOCC1)CC(=O)N1N=C(c2ccc(OC)cc2)C[C@H]1c1ccc(C)cc1	-20	1.73
O=C(CCc1nnc(C2CCCC2)o1)N1CCC[C@H]1c1ccc[nH]1	-8	0.8
CCOC(=O)[C@H](CC)n1nnc(-c2ccc3ncccc3c2)n1	10	-1.55
CCC(C)Oc1cc(-c2nc(C3CCCO3)no2)ccn1 (centres undefined)	9	-1.7
CO[C@H]1COC[C@@H]1NC(=O)N(C)Cc1nc(C)no1	6	-1.02
CS(=O)(=O)NCCNC(=O)NCCOc1ccc(F)c(F)c1	-10	1.26
C[C@@H](c1nnnn1C1CCCCC1)N1CCN(Cc2ccccn2)CC1	5	-0.85
Cc1ccc(OC2(C(=O)O)CCN(C(=O)[C@]3(C)CCCO3)CC2)cc1	-4	0.81
COC[C@H](C)Nc1c(F)cc(C#N)cc1F	-13	1.12
FC(F)c1nn(Cc2nc3c4cnn(-c5ccccc5)c4ncn3n2)c(C2CC2)c1Cl	-4	0.61
CCc1cc(N2CCO[C@H](c3nccs3)C2)n2ncnc2n1	-14	1.96
CC(=O)N[C@H]1[C@H](Oc2ccc(Cl)cc2Cl)O[C@@H]2COC(c3ccccc3)O[C@H]2[C@@H]1O (some centres undefined)	0	-0.01
CC(=O)NCc1ccc(C(=O)N/C(=N/c2ccccc2)NC[C@H]2CCCO2)cc1	-10	0.93
C#CC(C)(C)N(C)S(=O)(=O)c1cccs1	-4	0.76
CCN1CCN(C2=NCCN2C(=O)C2CCCC2)CC1	-7	1.26
COc1ccc2c(c1)OCCC2NC(=O)C(C)Cc1c(C)n[nH]c1C (centres undefined)	0	-0.05
Cc1cc(=O)[nH]c(N2CCC(NC(=O)[C@@H]3COc4ccccc4O3)CC2)n1	-3	0.46

SMILES	% Inhibition [%]	Z score
O=C(COC[C@H]1CCCCO1)NC(C1CC1)C1CC1	-8	1.05
Cn1cc(Cl)c(-c2nc3ccc(C(=O)O)cc3[nH]2)n1	-5	0.67
O=C(CCn1cc(Br)ccc1=O)Nc1ncccc1O	-4	0.76
O=C(NCC1(c2cccs2)CC1)Nc1cccs1	-9	1.32
COc1cc(C)ccc1OCCOCCN(C)C	-2	0.33
COc1ccc(C(=O)N[C@@H]2COCC[C@@H]2OCc2ccccn2)cn1	-4	0.71
Cc1c(-c2cc(-c3cnn(C)c3C)n(CC(=O)Nc3ccccc3)n2)cnn1C	33	-3.76
CCOc1ccc(NC(=O)N(Cc2cn(C)c3ccccc23)C2CCCCC2)cc1	33	-4.47
CC(=O)N1C[C@@H]2CN(Cc3ccc(CC(C)C)cc3)C[C@]2(C(=O)O)C1	-2	0.46
Fc1cnccc1CN[C@H]1CCOc2c(Br)cccc21	-1	0.19
c1cncc(-c2nc3cc(-n4ccnc4)ccc3o2)c1	-9	1.36
COc1ccc(CCOc2nc(-c3ccc(C)cc3)n(-c3ccc(NC(=O)C4CCC4)cc3)n2)cc1	-10	0.93
CC1(C)C(NCCc2cccc(C(N)=O)c2)[C@@H]2CCC[C@@H]21 (some centres undefined)	-8	1.57
CC(NC(=O)C1CCCc2c(O)cccc21)c1ncon1 (centres undefined)	6	-0.73
C=CCNC(=O)NC(=O)[C@H](C)S(=O)(=O)c1ccccc1	-3	0.27
CN(C)c1nc(N2CC[C@H](NC(=O)c3cnccn3)[C@@H](O)C2)ncc1F	-12	1.57
O=C(Nc1ccc(N2CCOCC2)cc1)c1cccc(-c2cnc3ccccc3c2)c1	-24	3.15
O=C(NCC1CCCO1)[C@@H]1CNC[C@H](C(=O)Nc2ccc3c(c2)CCC3)C1 (some centres undefined)	-12	1.37
CN1CC2(CCN(c3cc(C(N)=O)ccn3)CC2)C[C@@H](c2ccccc2)C1=O	16	-2.14
O=C1CC2(CCN(C(=O)N3CCOCC3)CC2)CN1Cc1ccc(Cl)cc1	7	-0.99
CN1C(=O)c2ccc(NC(=O)c3ccsc3)cc2C1=O	-1	0.07

SMILES	% Inhibition [%]	Z score
Cc1noc(C)c1NC(=O)N[C@H](c1ccccc1)C1(CO)CCC1	0	-0.04
NC(=O)[C@@H]1CCCN1S(=O)(=O)c1ccc(OCC2CCCCC2)cc1	-4	0.47
CCN(CC)CCNC(=O)CC1CCN(C(=O)c2ccc3oc(-c4ccc(C)cc4)nc3c2)CC1	-13	1.57
O=S1(=O)CCCN1Cc1cccc(-c2ccc3nonc3c2)c1	4	-0.42
CCN1c2cc(C)ccc2-n2cccc2C12CCN(C(=O)Nc1ccc3c(c1)OCCO3)CC2	12	-1.61
CC(C)(CN1CCOCC1)NC(=O)c1ncc(F)cc1F	-4	0.49
CN(C)c1ccc(C(=O)N(CCC#N)CC(C)(C)C)nc1	-2	0.31
O=C1CC[C@H](N2CCC(Cc3ccccc3)CC2)CCN1Cc1ccc(F)cc1	3	-0.67
CC(C)[C@H](NC(=O)CCCn1cccn1)c1nc2ccccc2n1C(C)C	2	-0.19
C[C@@H](CC(=O)NC(C)(C)CO)NC(=O)C1CCCCC1	-10	1.56
C=CCN1C(=O)OC(C)(CCC=C(C)C)C1(C)O (centres undefined)	76	-1.64
CCc1c(C(=O)NCc2nnc(C3CC3)o2)cnn1-c1ccccc1OC	-16	1.62
Cc1cccc(NC(=O)Nc2ccc(-c3nc4ccccc4s3)cc2C)c1	-5	0.86
COc1cc(OC)c(C(=O)N2CC[C@H](C(=O)N3CCCC3)C2)cc1OC	3	-0.46
CCc1noc(C)c1C(=O)N1C[C@@H]2CC[C@H]1CN(CCCc1ccccc1)C2	-3	0.58
CNC(=O)NC[C@H]1COCCN1C(=O)c1ccc(CC(C)C)s1	-13	1.46
Cc1cccc(NC(=O)c2sc(-n3nc(C)c(Cc4ccc5c(c4)OCO5)c3C)nc2C)c1C	17	-1.51
O=C(CC[C@H]1CCCN(C(=O)C2=CCCCC2)C1)N1CCN(c2ccccn2)CC1	-1	0.08
CCn1c(C)nnc1CN1CC[C@@](O)(C(F)(F)F)C1	4	-0.55
CCc1ccc(C(=O)N[C@H](C(=O)O)C(C)(C)C)o1	-17	1.76
COc1ccc(CN2CCC(CO)(CCCc3ccccc3)CC2)cc1	-14	1.54

SMILES	% Inhibition [%]	Z score
Oc1cccc(C2=NN(c3nc(-c4ccccn4)cs3)[C@@](O)(C(F)(F)F)C2)c1	29	-3.28
CCS(=O)(=O)NCCNC(=O)c1[nH]cnc1C(C)(C)C	3	-0.35
CC(=O)NC[C@H]1OC[C@@H](NCc2ccc(C)cc2)[C@@H]1O	5	-0.9
OC(COCC1CC2CCC1C2)CN1CCN(c2ccccc2)CC1 (centres undefined)	-4	0.51
Cc1cc(=O)n(CC(=O)NC2CCCCC2)c(-c2cccc(Cl)c2)n1	-4	0.61
O=C(O)C1CCN(C(=O)c2cccc3c2CCC3)CC1	-10	1.51
Cc1ncsc1CN(C)S(=O)(=O)c1cncc(Cl)c1	-14	2.19
COCC1(CNC(=O)N[C@@H](C)c2ccc(Cl)cc2)CCC1	-4	0.6
NC(=O)c1ccc(-c2cccc3ccnn23)cc1	-14	1.46
COc1ccc([C@H](CNC(=O)c2ccc(Cl)c(N3CCCC3=O)c2)N2CCCCC2)cc1	2	-0.3
Cc1cccc(/N=C(/NC(=O)c2cccc(Cl)c2)N2CCN(Cc3ccccc3F)CC2)c1	-5	0.92
C=CCOC1C[C@](OCc2cccc(C)c2)(C(=O)NCC2CC2)C[C@H]2OC(C)(C)O[C@@H]12 (some centres undefined)	-9	1.25
O=C(CCc1cc(F)ccc1F)NCC1(O)CCOCC1	0	-0.04
C[C@H]1Cc2ccccc2N(Cc2nc(C(=O)O)co2)C1	-2	0.28
O[C@@H]1CN(c2noc(C3CC3)n2)CCN(C2CCCC2)C1	-12	1.71
COc1cc(Cl)c(C)cc1NC(=O)[C@@H](C#N)C(=O)c1cnn(C)c1	-7	1.13
CCN(C(=O)Nc1cc(C)c(Cl)cc1OC)[C@H]1COC[C@@H]1O	-12	1.77
O=C(c1ccc2nccn2c1)N1CCN(Cc2cc(F)cc(F)c2)CC1	-10	1.78
COc1ccc(NC(C)(C)C(=O)N2CC[C@H](CO)[C@@H](O)C2)cc1	10	-2.02
